Drawing on PubChem BioAssay AID485344 (National Center for Advancing Translational Sciences (NCATS), 2010), this text covers inhibition for 94 compounds.

About 6,900 (2%) of roughly 340,000 compounds were called active. Rule as the data show it: active = inhibition above about 30%; inactive = below that, where a call was filed. This is a selection; strong and weak results do not stand in their true shares. Entries without a call were filed so in the source.

Chain of UniProt P14416 (P14416 whole entry, looked up): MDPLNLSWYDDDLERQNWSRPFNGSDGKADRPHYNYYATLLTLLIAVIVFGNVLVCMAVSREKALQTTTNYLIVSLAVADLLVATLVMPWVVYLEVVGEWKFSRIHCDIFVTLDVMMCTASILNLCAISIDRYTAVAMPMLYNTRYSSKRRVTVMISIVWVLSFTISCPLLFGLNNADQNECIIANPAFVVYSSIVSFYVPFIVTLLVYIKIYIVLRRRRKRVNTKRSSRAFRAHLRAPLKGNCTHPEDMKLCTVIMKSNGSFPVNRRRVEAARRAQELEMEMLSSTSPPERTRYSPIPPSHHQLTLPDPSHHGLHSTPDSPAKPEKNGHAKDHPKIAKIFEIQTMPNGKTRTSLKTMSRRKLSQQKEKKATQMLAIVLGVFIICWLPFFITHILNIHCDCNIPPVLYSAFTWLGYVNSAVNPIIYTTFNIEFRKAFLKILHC

In this assay the target is D(2) dopamine receptor (Homo sapiens) (UniProt P14416). Description: HTS Assay for Allosteric Antagonists of the Human D2 Dopamine Receptor: Primary Screen for Antagonists. Also: 0% is about no effect. The settings on record: HEK293 TREx D2 cells, calcium flux, dopamine EC80; at 10 µM; stronger effect = higher value. In a few lines:
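Measurement of antagonist activity uses fluorescent calcium dye in inducible HEK293 T-REx D2 cells: 10 s baseline, compound addition with 180 s read, EC80 dopamine addition with a further 180 s read.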
As for `Cc1ccc(Cn2c(CN3CCC(C(=O)NCC(C)c4ccccc4)CC3)cc3ccccc32)cc1` (centres undefined), the inhibition – broadly, the change of the read-out against control, counted positive when it falls – came to 10.1%.
Next, `Cc1ccc(C)c(N2CCN(C(=O)C3CCCN(S(=O)(=O)c4cccc5nonc45)C3)CC2)c1` (centres undefined): 14.5%.
`Cc1ccc(-c2cc(C(=O)Nc3c(C(=O)c4ccc(C)c(F)c4)oc4ccccc34)no2)cc1`: the inhibition was determined as 3.21%.
Turning to `CCOCCc1nn2c(=O)cc(COC(=O)c3cccc(C)c3)nc2s1`, the inhibition came out at 9.33%.
Turning to `CCOC(=O)c1c(NC(=O)CSc2cn(CCNC(=O)c3c(F)cccc3F)c3ccccc23)sc2c1CCCC2`, the inhibition is -10.5%.
For the compound `COc1ccc(NC(=O)CSc2nc(-c3ccc(OC)c(OC)c3)[nH]c2-c2ccc(C)cc2)cc1`, the inhibition was -6.78%.
Next, `CCOC(=O)Cc1ccc(NC(=O)N(C(C)C)C2CCN(C(C)=O)CC2)cc1`: 20.3%; `COc1ccc(NCc2cc3cc4c(cc3n(CC(=O)Nc3ccccc3)c2=O)OCO4)cc1`: 11%.
For the compound `O=C(Nc1ccc(Cl)cc1)c1cc(S(=O)(=O)N2CCCc3ccccc32)ccc1F`, the inhibition is -1.24%.
As for `CCOC(=O)c1noc2ncn(Cc3cccc(C#N)c3)c(=O)c12`, the inhibition worked out at 8.86%.
As for `Cc1cc(Cl)ccc1NC(=O)CN1C(=O)COc2ccc(S(=O)(=O)N3CCC(C)CC3)cc21`, the figure is 14.4%.
As to `O=C(CCCn1c(=O)[nH]c2ccsc2c1=O)N1CCN(c2cccc(C(F)(F)F)c2)CC1`, the inhibition stood at 7.93%.
Next, `COc1ccccc1CN(Cc1ccco1)c1cnc(S(C)(=O)=O)nc1C(=O)Nc1ccccc1Cl`: 3.99%.
As for `CCOc1ccc(CCNC(=O)CCCc2nnc3n(C)c(=O)c4sccc4n23)cc1OCC`, the inhibition was -12.6%.
Next, `Cc1c(C(=O)OC2CCC(C)CC2)[nH]c2c1C(=O)CC(c1ccccc1Cl)C2` (centres undefined): 7.94%.
Next, `COc1ccc(OCC(=O)Nc2nc(-c3ccc(Br)cc3)ns2)cc1`: -1.66%; `O=C(COC(=O)c1ccc(F)cc1F)NC1CC1`: active: 30.9%.
For `CCc1cccc(C)c1NC(=O)NC1COc2ccccc2C1` (centres undefined), the inhibition was 4.11%.
Next, `CCNc1nc(NC(C)CC)nc(Oc2ccc(OCC)nn2)n1` (centres undefined): 7.35%; `CC(=O)N1c2c(cc(Br)cc2S(=O)(=O)Nc2ccc(OC(F)(F)F)cc2)CC1C` (centres undefined): -13.7%.
As for `CCOc1ccc(CNC(=O)Cn2cc3c(n2)-c2c(oc(C(=O)N4CCCC4)c2C)CC3)cc1`, the figure is -27.7%; as for `CCCC1=Nc2cc(C(=O)NCC(C)c3ccccc3)ccc2Sc2ccccc21` (centres undefined), 3.83%; as for `Cn1c(=O)c(C(=O)COC(=O)c2cc(-c3ccccc3)nc3ccccc23)c(N)n(Cc2ccccc2)c1=O`, active: 30.6%.
Regarding `Cc1ccc(C2c3c(-c4ccccc4O)n[nH]c3C(=O)N2CCc2ccccc2)cc1` (centres undefined), the inhibition was -1.45%.
With `CC1CCCN(C(=O)CCS(=O)(=O)c2cc3c(cc2Cl)NC(=O)CO3)C1` (centres undefined), the inhibition is -1.4%.
`COc1cccc(CNC(=O)Cn2nc3c(cc2=O)CCCC3)c1OC`: the inhibition came to 12.4%.
Regarding `COC(=O)c1c(-c2ccc(Cl)cc2)noc1N1CCN(c2cccc(C)c2C)CC1`, the inhibition was -10.7%.
Next, `CCc1cnc2c(c1SCC(=O)Nc1ccc(OC)c(OC)c1)c(=O)n(C)c(=O)n2C`: -5.34%; `C=CCn1c(-c2sc3nc(C)cc(C)c3c2N)n[nH]c1=S`: active: 31.6%.
As for `O=C(NCc1ccc(Cl)cc1)c1ccc2oc(=O)n(Cc3ccccc3)c2c1`, the figure is 2.41%; as for `CCOC(=O)c1c(O)cc(C)cc1Nc1ccccc1`, active: 32.2%; as for `CCOC(=O)Cn1c(=O)oc2cc(S(=O)(=O)N3CCCC(C)C3)ccc21` (centres undefined), -9.3%.
With `Cc1nc(-c2cccc(NC(=O)COc3ccc(Cl)cc3)c2)cs1`, the inhibition is active: 70%.
Next, `CCCCn1cc(S(=O)(=O)c2ccc(Cl)cc2)c(=O)c2cc(F)c(N3CCCC(C)C3)cc21` (centres undefined): 19.3%; `COC(=O)c1c(SC)nc2ccccc2c1OCc1ccc(C)cc1`: -4.12%; `CCOC(=O)c1c(C)[nH]c(C)c1S(=O)(=O)N1CCCC(C(=O)NCc2ccc(C)cc2)C1` (centres undefined): -5.73%.
As for `CCc1ccccc1N1C(=O)N(CC(=O)c2ccc(Cl)cc2)c2ccccc2S1(=O)=O`, the inhibition was -3.44%.
With `Cc1ccc(Cn2c(=O)n(CCc3ccccc3)c(=O)c3c(C)c(C)sc32)cc1`, the inhibition is -17.7%.
As for `CCOc1ccc(C2=C(C(=O)CC)Sc3nncn3N2C(=O)CC)cc1`, the figure is 1.98%; as for `COc1ccc(Nc2cc(C(=O)NCc3cccs3)c3ccccc3n2)cc1`, -16.1%; as for `CCN1CCN(c2nc(Nc3cccc(F)c3)nc(N)c2[N+](=O)[O-])CC1`, active: 73.4%.
Next, `COc1ccc(CCNC(=O)CSc2cn(CCNC(=O)c3ccccc3F)c3ccccc23)cc1OC`: 3.06%.
As for `CN1CCN(C(=O)C(=O)Nc2c3c(nn2-c2cccc(Cl)c2)CSC3)CC1`, the figure is -9.24%; as for `CCCCOC(=O)Cn1nnc2sc(-c3ccccc3)cc2c1=O`, -17.6%; as for `O=C(CSc1ncc(-c2ccccc2)[nH]1)Nc1ccc(F)cc1F`, -16.5%.
In the case of `O=C(CCCCn1c(=O)c2ccccc2n(CC(=O)Nc2ccc(F)cc2F)c1=O)NCc1ccccc1Cl`, the inhibition is -16.2%.
For `COC(=O)C1=C(c2ccccc2)c2ccccc2S(=O)(=O)N1CC(=O)Nc1cccc(C(C)=O)c1`, the inhibition was 16.4%.
As for `Cc1ccc(CCNC(=O)c2ccc(NC(=O)N3CC(C)Sc4ccccc43)cc2)cc1` (centres undefined), the figure is -3.8%; as for `COc1cccc(NC(=O)c2sc3nc(C)c(C(=O)Nc4ccc(C)cc4C)c(-c4ccccc4Cl)c3c2N)c1`, 10.3%; as for `CCc1ccc(-c2nc(CN3CCC(C(=O)NCCc4ccc(Cl)cc4)CC3)c(C)o2)cc1`, 13.3%.
As for `CCOC(=O)c1ccccc1NC(=O)Cn1ncc2c([nH]c3ccccc32)c1=O`, the figure is 5.2%.
As for `COc1cccc(C2CC(=O)Nc3cc4c(cc32)OCCO4)c1OC` (centres undefined), the figure is 3.1%; as for `CCc1ccccc1NC(=O)CCn1nc(C)c2c(C)n(-c3ccccc3)nc2c1=O`, 10.4%.
Consider `Cc1ccccc1Cn1c(SCc2ccc(C(=O)NC(C)c3ccccc3)cc2)nc2ccncc21` (centres undefined), for which the inhibition is -6.04%.
On to `CCc1ccc(-n2c(=O)c3c4c(sc3n(CC(=O)NCCCOC)c2=O)CCCC4)cc1`, for which the inhibition worked out at 24.9%.
As for `Fc1ccc(NCc2cccn2-c2nnc(N3CCOCC3)s2)cc1`, the inhibition stood at 10%.
As for `CC1CCN(c2ncnc3c2cnn3-c2ccc(F)cc2)CC1`, the figure is -0.0479%; as for `O=C(NCCc1cccs1)c1ccc(Cn2c(SCc3ccc(F)cc3)nc3cccnc32)cc1`, -13.3%; as for `COc1ccc(C(=O)CN2CCN(S(=O)(=O)c3ccc(C(C)C)cc3)CC2)cc1`, 14.3%.
Next, `COc1ccc(CN2CCn3ncc(C(=O)Nc4cc(C)cc(C)c4)c3C2=O)cc1`: active: 37.7%.
For `COc1cccc(CN2CCc3nc(Nc4ccc5c(c4)OCCO5)ncc3C2)c1`, the inhibition was found to be 9.07%.
Regarding `Cc1ccc2nc(N(Cc3cccnc3)C(=O)Cc3ccccc3)sc2c1`, the inhibition is -11.3%.
As for `COc1ccc(C(=O)/C=C2\Sc3ccccc3N2C)cc1`, the inhibition was active: 40.5%.
In the case of `Cc1ccc(-c2nc3nc(C)cc(N4CCN(c5cc(Cl)ccc5C)CC4)n3n2)cc1`, the inhibition was 0.786%.
Next, `COc1cccc(-n2c(SCC(=O)Nc3cc(C)ccc3C)nc3c(oc4ccccc43)c2=O)c1`: -4.8%.
Turning to `CCn1c(=O)n(-c2ccc(C)c(F)c2)c(=O)c2sc3ccccc3c21`, the inhibition was -4.88%.
As for `CCCCN1C(N)=NC[C@H]1Cc1ccc(O)cc1`, the figure is active: 47.7%; as for `COc1ccc(-c2cc(C(=O)Oc3ccccc3)c3cc(C)ccc3n2)cc1`, 13%.
With `COc1ccc(C2=NC3(CCCCC3)N(CC(=O)Nc3ccc(C(C)C)cc3)C2=O)cc1`, the inhibition came out at 4.37%.
Next, `CCOCCCNC(=O)c1ccc2nc(CCc3ccccc3)oc2c1`: 9.41%; `O=C(Nc1ccc(Cl)c(C(F)(F)F)c1)NC1CC2CCCC(C1)N2Cc1ccccc1` (centres undefined): active: 47.5%.
As for `O=C(COC(=O)c1cc(-c2cccs2)nc2ccccc12)c1ccccc1`, the inhibition was -9.31%.
Next, `CCOC(=O)c1oc2ccc(S(=O)(=O)n3nc(-c4ccccc4OC)cc3N)cc2c1C`: 23.7%.
Next, `O=C1C2CCCN2C(c2ccccc2)N1c1nccs1` (centres undefined): active: 66.8%.
Next, `CCCN(CCC)CCCNC(=O)Cn1cnc2sc(C)c(S(=O)(=O)N3CCCCC3)c2c1=O`: 24.7%.
Regarding `CCCN(Cc1cccs1)C(=O)Nc1cc(Cl)c(OC)cc1OC`, the inhibition was determined as 7.13%.
Regarding `Cn1c(=O)c2c(c3ccccc31)OC(=O)CC2c1ccc(C(F)(F)F)cc1` (centres undefined), the inhibition amounted to 0.326%.
As for `O=C(Nc1ccc2oc(-c3cccc4c(Br)cccc34)nc2c1)c1ccc(F)cc1`, the figure is 3.16%; as for `CCc1ccc(NC(=O)C(NS(=O)(=O)c2cccs2)C(C)C)cc1` (centres undefined), -2.98%; as for `CCCCN(C)CCNC(=O)c1ccc2c(=O)n(CCc3ccccc3)c(=O)[nH]c2c1`, -11.8%.
Next, `COc1ccccc1C(=O)NCC(=O)N1CC=C(c2ccccc2)CC1`: active: 30.2%; `Cc1nc(N2CCOCC2)c2c(C(=O)NCc3cccc(Cl)c3)c(C)oc2n1`: 19.5%.
Take `O=C(CCCCCn1c(=O)c2sccc2n(CC(=O)Nc2cccc(Cl)c2)c1=O)NCc1ccc2c(c1)OCO2`: the inhibition came out at 8.77%.
For the compound `CCOC(=O)Cc1ccc(NC(=O)Nc2cccc(OCc3cc(=O)n4cc(C)ccc4n3)c2)cc1`, the inhibition is 11.7%.
`COc1ccc(-c2nc3c(c(SCC(=O)Nc4ccc(C(=O)O)cc4)n2)Cc2ccccc2O3)cc1`: the inhibition is -15.7%.
As for `CCc1cccc(NC(=O)CSc2ncc3c(n2)-c2ccc(Cl)cc2N(Cc2ccccc2)S3(=O)=O)c1`, the figure is 14.5%.
Next, `CCc1c(C)sc2c1CCN(C(=O)Nc1cc(OC)c(OC)c(OC)c1)C2c1ccccc1` (centres undefined): 17.5%; `O=C(NCCN1CCN(c2ccccc2)CC1)C1CCCN(S(=O)(=O)c2cnc[nH]2)C1` (centres undefined): active: 75.7%; `COc1cccc(C(=O)NC2(C(F)(F)F)C(=O)Nc3c2c(=O)[nH]c(=O)n3-c2ccc(C)cc2)c1` (centres undefined): 1.37%.
Regarding `COc1ccc(NC(=O)c2cn(CC(C)C)c(=O)c3cc(OC)c(OC)cc23)cc1Cl`, the inhibition is -0.339%.
`COc1ccccc1NS(=O)(=O)c1cccc2cccnc12`: the inhibition was active: 31.1%.
In the case of `Cc1ccc(NC(=O)c2nn(C)c3c2CS(=O)(=O)c2ccccc2-3)c(Cl)c1`, the inhibition is -9.81%.
As to `C#CC(C)(C)NS(=O)(=O)c1cc(-c2nnc(Nc3ccc(C)cc3)c3ccccc23)ccc1C`, the inhibition was 2.16%.
Next, `COc1ccc(-n2cc(CNCCc3cscn3)c(-c3ccccc3Cl)n2)cc1`: active: 47.6%.
